Results: the supplement of paper PMC3334620
In all, about 33,000 sequences were measured (“E-score (-0.5 to 0.5)”: median about -0.041, highest 2% from about 0.37 on). The list shows a part of the results.

These sequences were tested against T1, Ecm22 (UniProt Q05958) (assay: PBM E-score (8-mer binding enrichment) (E-score (-0.5 to 0.5)); higher = stronger / more preferred TF binding; most listed sequences are background and not binding sites). Conditions: protein concentration: 200 nM; construct: GST-full length.
T1 sequence: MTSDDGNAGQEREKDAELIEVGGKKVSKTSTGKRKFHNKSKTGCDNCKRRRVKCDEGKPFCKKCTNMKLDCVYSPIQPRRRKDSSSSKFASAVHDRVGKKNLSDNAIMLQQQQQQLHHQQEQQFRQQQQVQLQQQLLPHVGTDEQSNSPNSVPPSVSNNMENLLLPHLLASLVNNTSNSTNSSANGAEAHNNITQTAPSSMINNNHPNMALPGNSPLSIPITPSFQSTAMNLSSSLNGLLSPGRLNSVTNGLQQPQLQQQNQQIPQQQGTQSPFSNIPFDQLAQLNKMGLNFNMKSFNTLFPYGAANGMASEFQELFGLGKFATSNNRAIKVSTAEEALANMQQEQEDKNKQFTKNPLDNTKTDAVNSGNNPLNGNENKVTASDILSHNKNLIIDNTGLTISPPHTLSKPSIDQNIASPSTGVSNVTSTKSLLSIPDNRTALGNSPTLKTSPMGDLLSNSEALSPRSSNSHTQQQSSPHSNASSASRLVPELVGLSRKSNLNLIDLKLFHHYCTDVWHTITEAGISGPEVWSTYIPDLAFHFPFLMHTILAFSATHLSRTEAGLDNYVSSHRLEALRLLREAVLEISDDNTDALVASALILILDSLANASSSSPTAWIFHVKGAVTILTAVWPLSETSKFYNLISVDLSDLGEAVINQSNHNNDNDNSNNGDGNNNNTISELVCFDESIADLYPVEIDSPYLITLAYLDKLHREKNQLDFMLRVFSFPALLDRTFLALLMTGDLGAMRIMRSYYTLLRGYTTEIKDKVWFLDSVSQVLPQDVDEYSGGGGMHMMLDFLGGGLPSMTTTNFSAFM
Summary of the method: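 PURExpress in vitro transcription/translation supplied GST-tagged yeast transcription factors, either full-length or DNA-binding domain. Applied at about 100-200 nM to universal all-10-mer Agilent arrays double-stranded by primer extension, the bound protein was detected with fluorescent anti-GST. E-scores, modified Wilcoxon-Mann-Whitney statistics, were given by the Universal PBM Analysis Suite to ungapped eight-base words pooled with their reverse complements after masliner normalisation.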

Sequence | PBM E-score
GCGCCGGA | 0.105
GACCAGGC | -0.228
ACGCTTAT | 0.0104
GTGCAGAA | 0.104
AGATTAGC | -0.0627
AGAGACAG | -0.144
CTTGCGAC | 0.0241
AAGGTCAA | -0.218
AACTCCAC | -0.128
GCAGAGCA | -0.0364
ATAGGGTA | 0.034
GAGTCCTA | -0.216
CTAGGATC | -0.0532
ATTTGGAA | -0.148
TAATTCCA | -0.0387
AGAATGAT | -0.0132
CAATAGTA | -0.11
AAGTACTC | 0.152
AAATCCAG | 0.0493
GTTGTCCA | -0.0855
GTTCGTAA | 0.427
AGCTGTGA | -0.0321
CTTTAGTA | 0.0175
CTATACGC | 0.403
CTGCTTCC | -0.214

Sequence | PBM E-score
AGAAGTTC | -0.106
GTCGAAAA | 0.0767
ATAATGGC | -0.0692
CAGTCCCA | -0.312
CAACCTAG | -0.22
AGCCTGGG | -0.174
AATGCTCC | -0.233
ATCCGGGG | -0.0181
TAAAACTA | 0.0191
AATTAACA | -0.0123
TGGCGACA | 0.11
CACTGCCA | -0.00316
AAGGTGTA | -0.0872
CCATGCAA | -0.145
AAAGCATT | -0.0847
ACTGGCTG | -0.127
ACAACTCC | -0.151
GCGACTAC | 0.0827
AACCCAGT | -0.0243
CGATCTAA | 0.0461
GGGGGACC | -0.272
CAAATCCG | -0.0204
CAATGGTC | -0.129
TCAGTGCA | -0.0784
AAAGGTTC | -0.00446

Sequence | PBM E-score
AAGGGAAG | -0.131
AGAATACG | 0.293
CACAACAG | -0.256
CTTGGTCC | -0.103
GAACACAC | -0.123
AACCGGGA | 0.043
CAGCAGGA | -0.248
ATACGCTG | 0.205
TCCTATCA | -0.0891
ATTCTATA | -0.00057
CATGGGCG | -0.184
GGACGAGA | 0.0358
CTAAGGTC | -0.196
CTACAAGC | -0.0162
GGTAGCGA | 0.157
ACAAAATG | -0.0181
CGAGACCA | 0.21
CGTCACAA | 0.0778
ATCATGTA | 0.0364
GATACCGC | 0.031
ATTCGTAA | 0.405
CAGTTAGA | -0.187
GCCTGAGA | -0.0939
AAGAACTC | -0.0316
GCAAGCAC | -0.248

Sequence | PBM E-score
TATACACA | 0.198
ATGTCATG | -0.0467
ATGACACA | -0.0421
AATTGATA | 0.0989
CTTCCTCA | -0.132
ATGATCGC | 0.0439
CCCCTCTC | -0.188
AGCGGGAA | 0.182
CCTTAACC | -0.173
AATTGACG | 0.0203
CGGATACA | 0.162
CATGGCCA | -0.311
ACGATTAC | 0.277
GATTAGGC | -0.0365
CCAGAGCA | -0.105
AGATCCTG | -0.103
CAGTACCA | -0.017
CAGTGGAA | -0.284
GTTACGCA | 0.0933
CCGCATCA | -0.195
AAAAGTCG | 0.0905
ACGGAATC | -0.0009
GATTCTAC | 0.0474
GTGATTAA | -0.0515
TCGAGAGA | 0.0743

Sequence | PBM E-score
GCACGACA | 0.114
GCAGCCAC | -0.0453
CCCGGTTA | 0.00957
ACCCTGTG | -0.08
ATACTCCA | -0.0114
CGAACTCA | 0.0727
AAACCAGT | -0.00755
CGGCCGCA | -0.0854
CAATCTCA | -0.0458
AACTCCAT | -0.298
AAACGCGT | 0.227
GCGGTTCC | 0.0954
GATGTCGA | 0.0298
CTAAGCCC | -0.327
AGTTTGCG | -0.0229
AATATTTC | 0.0902
TAGGAGCA | -0.249
AAGAATGG | -0.0869
CTGCCCTA | -0.296
CGATCGTA | 0.437
AACTGGCG | 0.0384
AAGGTAAT | -0.00177
CTACCTAG | -0.286
CGAGGGAC | 0.125
CTATGAGC | -0.162

Sequence | PBM E-score
CATAGTAG | 0.195
AAGTCCCC | -0.134
GAGGGTGA | -0.089
AACCCGGG | -0.1
AAGTACGG | 0.281
TAGCTAGA | -0.0745
GAACAACC | 0.0822
CACGACTC | 0.0577
AATGCCGC | 0.109
CGGCACCG | 0.106
ATTGTAAG | -0.0704
CAATGCTC | -0.00915
CAAACTTG | -0.0918
GCAGTCGC | 0.0968
ATAGGGGA | -0.227
GGCCGTGA | -0.165
ATGAGGCA | -0.147
GACGTTGC | 0.168
ATATCATA | 0.243
ATATGCGC | 0.0551
AGGTACCC | -0.249
CATCCAAC | -0.0746
CTTATAGC | 0.0718
CACCACCG | -0.112
AGACTGCC | 0.0643

Sequence | PBM E-score
ACTAAGCT | -0.00994
AGAAGCGG | -0.165
AGCCAGTC | -0.0789
CCGTGGGC | -0.0945
AGTTTGAG | -0.116
AGTATGAA | 0.0349
CAGAGGGC | -0.268
ACTACAGG | -0.0997
CTACCAGC | -0.0908
ATGACGAA | 0.098
ACTCGGAC | 0.126
AGGCAGCC | -0.176
AAAACGGG | 0.278
AATTGGGG | -0.0806
GAAGCTCA | -0.182
CGCCTCCC | 0.0189
AGAATGAA | 0.0485
AGACGGTA | -0.121
TCGGCTAA | 0.184
TAGTTGGA | -0.0836
GCTCAGAC | -0.112
AACCCGTT | 0.201
